Laboratory results from the supplement of paper PMC10338343.
± gives the standard deviation. Only a part is listed here, and it is no random draw.

Test system: MIWI (PIWIL1) piRISC loaded with L1MC piRNA (30 nt)
Test: pre-steady-state target cleavage rate (min^-1); MIWI and MILI are mouse PIWI proteins and EfPiwi is from a freshwater sponge; tags in brackets are library labels; higher = faster piRNA-guided slicing of the target
Conditions: guide: L1MC piRNA 5'p-UAACUAAAUACUAUGCAAGCUGUAGGUCCU; auxiliary factor: none (no GTSF1)
Method in brief: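 A burst-and-steady-state fit was used to obtain the pre-steady-state cleavage rate. The input data were sequencing reads of uncleaved targets, normalised to depth and to weakly complementary targets, from a […] transcribed, DNA-blocked target RNA library mixed with 1 nM active affinity-purified piRISC holding one synthetic guide, with or without 500 nM GTSF1 partner protein, in HEPES–potassium acetate buffer at 33 °C for 0–8 or 0–960 min. Three trials were pooled and k3 was capped at 0.0001 min^-1.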
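Also: 1 nM active piRISC with 0.1 nM target library at 33 °C single turnover.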

Sequence | pre-steady-state target cleavage rate
UCCUGGAUCAGCUUUGCAUAGUAUUUAGUUA | 0.0153 ± 0.004
UCCUGGAUGUGCUUGCAUAGUUUUUAGUUA | 0.016 ± 0.0042
UCCUGGAACAGCUUGCAUAGUAUUUAGUCUA | 0.0111 ± 0.0022
ACCACCUACAGCUUGCAUAGUAUUUACAAA | 0.00495 ± 0.0036
UCCACCUUCAGCUUGCAUUGUAUUUAGUUA | 0.0245 ± 0.0059
UCCUCCUACAGCUUCCAUUGUAUUUAGUUA | 0.00218 ± 0.0021
UCCUGCUUCAGCUUGGAUAGUAUUUAGUUA | 0.049 ± 0.0081
UCCUGGAACUGCUUGCAUAGUUUUUAGUUA | 0.0278 ± 0.0086
UCCUGGAUGUCCUUGCAUAGUAUUUAGCUUA | 0.00476 ± 0.0022
UCCUGGAUCAGCAUGCAUAGUAUUUACUUA | 0.0104 ± 0.0021
UGGUCCUACAGCAUGCAUAGUAUUUAGUUA | 0.0657 ± 0.014
UCCACGUACAGCUUGCAUAGUAUUAAGUUA | 0.0198 ± 0.0035
UCCACCUACAGCUUGCAUAGUUAUUUAGUUA | 0.00374 ± 0.0023
UGGACCUACUCCUUGCAUAGUAUUUACAAA | 0.00535 ± 0.0019
AGGACGUACAGCUUGCAUAGUAUAUAGUUA | 0.0387 ± 0.01
UCCUGGAACAGCAUGCAUAGUAUAUAGUUA | 0.0122 ± 0.0047
UCCACGUACAGCUAGCAUAGUAUUUAGUUA | 0.0177 ± 0.0033
UGGACCUACAGCUUGCAUAGUUAUUAGUUA | 0.0145 ± 0.0034
UCCUGGAUGUCCUUGCAUAGUAUUUAGUUA [g2:g19:cont:t1A] | 0.0112 ± 0.0025
UCCUCCUACAGCUUGCAUAGUUUUUACUUA | 0.0147 ± 0.0039
UCCUGCUACACCUUGCAUAGUAUUUAGAUA | 0.012 ± 0.0027
UCGUCCUACAGCUUGCUUAGUAUUUAGUUA | 0.0358 ± 0.0073
UCCUGGAUGAGCUUGGAUAGUAAUUAGUUA | 0.0138 ± 0.0052
UCCUGCUACAGCUUGCAUAGUAUUUAGGUA | 0.0162 ± 0.0038
